The source of these data is ChEMBL document CHEMBL1201862, “PubChem BioAssay data set” (2004).

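Interpolation was linear, between the two tested concentrations surrounding the appropriate level; five concentrations were tested over 48 hours in 96-well plates. The concentration for 50% growth inhibition is given as GI50.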 Active and inactive are the calls of the source. Cut-off read from the data, not from the text of the source: active = GI50 up to about 1.1 µM and inactive = higher. Bounds are passed on as bounds.

The test system of this assay is NCI-H322M. In words: NCI-60 cell line screen, 48 h.
With `N#C/C(=C\c1ccc([N+](=O)[O-])o1)c1n[nH]c(Cc2ccccc2)n1`, the GI50 is inactive: 15 µM.

On to `Cc1cc(S(=O)(=O)Nc2n[nH]c(-c3ccc(Cl)cn3)n2)c(S)cc1Cl`, for which the GI50 is inactive: 48.8 µM.

For `CCOC(=O)C(NC(C)=O)(Nc1ccc(F)cc1)C(F)(F)F` (configuration not stated), the GI50 is inactive: > 100 µM.

Turning to `CC1=CC(=O)NP(=O)(Oc2ccc(Cl)cc2)N1` (configuration not stated), the GI50 is inactive: > 100 µM.

Take `C=C(C)CN(CC#N)CC(=C)C`: the GI50 is inactive: > 100 µM.

Turning to `O=C(O)c1ccc(C(=O)c2ccccc2)c(C(=O)O)c1`, the GI50 is inactive: > 100 µM.

In the case of `O=C1c2ccccc2C(Br)(Br)c2ccccc21`, the GI50 is inactive: > 100 µM.

Consider `Cc1cc(Cc2cc(C)c(NC(=O)C(=O)C3C(=O)NC(=S)NC3=O)c(C(C)C)c2)cc(C(C)C)c1NC(=O)C(=O)C1C(=O)NC(=S)NC1=O`, for which the GI50 is inactive: > 100 µM.

Take `CCN(CC)Cc1ccc(Nc2c3ccccc3nc3ccccc23)cc1`: the GI50 is inactive: 3.45 µM.

Take `COC(=O)c1c(O)ccc2c1c1c(n2Cc2ccccc2)C(=O)c2ccccc2C1=O`: the GI50 was inactive: 14.2 µM.

In the case of `CC12c3c4ccc(C=O)c3Oc3ccc(C=O)c(c31)Oc1ccc(C=O)c(c12)O4`, the GI50 is inactive: > 25 µM.

With `CCOC(=O)c1c(-c2ccc(OC)cc2)c(C#N)c(=S)n(C2OC(COC(C)=O)C(OC(C)=O)C(OC(C)=O)C2OC(C)=O)c1C` (configuration not stated), the GI50 was inactive: > 100 µM.

On to `CCSC1=N/C(=C\c2ccco2)C(=O)N1`, for which the GI50 was inactive: > 100 µM.

For `CN(C)c1nc2oc(-c3ccccc3)c(-c3ccccc3)c2c2nnnn12`, the GI50 was inactive: > 100 µM.

Take `CC/C=C\C=C/C(=O)N/C=C/CCC`: the GI50 was inactive: > 100 µM.

`N#CN1CCC2CC(=O)CCC2C1` (configuration not stated): the GI50 was inactive: > 100 µM.

Regarding `Cn1cccc(C(=O)c2ccccc2)c1=O`, the GI50 is inactive: > 100 µM.

In the case of `CC(=O)OC1CCC2(C)C(=CCC3C2CCC2(C)C(C(C)C(=O)O)CCC32)C1` (configuration not stated), the GI50 is inactive: 89.3 µM.

In the case of `O=C(OCCN=C1c2ccccc2CCc2ccccc21)c1cc([N+](=O)[O-])cc([N+](=O)[O-])c1`, the GI50 is inactive: > 10 µM.

Consider `O=[N+]([O-])c1cc(/C=N\NS(=O)(=O)c2ccc(Cl)cc2)c(O)c([N+](=O)[O-])c1`, for which the GI50 is inactive: 52.4 µM.

Turning to `CCCCCCCCC(C)CCCCCCCCC(=O)OCC(COP(=O)([O-])OCC[N+](C)(C)C)OC(=O)CCCCCCCCC(C)CCCCCCCC` (configuration not stated), the GI50 was inactive: > 100 µM.

Consider `C/C(=N/NC(=S)Nc1ccccc1Cl)c1ccccn1`, for which the GI50 is active: < 0.01 µM.

In the case of `Cc1nc2ccccc2c(=O)n1NC(=S)Nc1ccc(Cl)cc1[N+](=O)[O-]`, the GI50 was inactive: > 100 µM.

As to `CCOC(=O)C1(CO)CSCCSC1`, the GI50 was inactive: > 100 µM.

In the case of `COc1cc2c(cc1O)C1CC(CC3CCCCN31)OC(=O)/C=C\c1ccc(O)c-2c1` (configuration not stated), the GI50 was inactive: 24.2 µM.

Regarding `CCOC(=O)C(NC(=O)CC)(Nc1ccc(F)cc1F)C(F)(F)F` (configuration not stated), the GI50 is inactive: > 100 µM.

For `O=C(O)C(Cc1cccs1)NC(=O)C(F)(F)F` (configuration not stated), the GI50 is inactive: > 100 µM.

In the case of `CC1=C(C(=O)NCc2ccccc2)C(c2ccc([N+](=O)[O-])cc2)C(C(=O)NCc2ccccc2)=C(C)N1`, the GI50 is inactive: 28.1 µM.

As to `O=C(NC12CC3CC(CC(C3)C1)C2)C(=O)c1c[nH]c2ccc(Cl)cc12`, the GI50 is inactive: 86.9 µM.

Consider `O=C(c1ccc(Cl)cc1)c1ccc(OCCSCCCCCCCCCCSCCOc2ccc(C(=O)c3ccc(Cl)cc3)cc2)cc1`, for which the GI50 was inactive: > 100 µM.

Consider `CC(=O)OCC(OC(C)=O)C(OC(C)=O)C(/C=N\Nc1nc2ccccc2c(=O)[nH]1)OC(C)=O` (configuration not stated), for which the GI50 is inactive: > 100 µM.

As to `CCN(CC)CCNc1c(OC)cc(C)c2sc3ccccc3c(=O)c12`, the GI50 was inactive: 10.5 µM.

As to `C[C@H]1[C@H](C)CC[C@]2(C(=O)OC3OC(CO)C(O)C(O)C3O)CC[C@]3(C)C(=CC[C@@H]4[C@@]5(C)C[C@@H](O)[C@@H]6OC(=O)c7cc(O)c(O)c(O)c7-c7c(cc(O)c(O)c7O)C(=O)OC[C@]6(CO)[C@@H]5CC[C@]43C)[C@H]12` (some centres not stated), the GI50 is inactive: 14.1 µM.

For `Cc1c2ccccc2c(CO)c2cc(F)c3ccccc3c12`, the GI50 was inactive: > 100 µM.

Consider `C=CCN1C(=O)NC(=O)/C(=C/c2c3ccccc3cc3ccccc23)C1=O`, for which the GI50 was inactive: 22.7 µM.

Regarding `OCC1OC(Oc2cc(O)cc(/C=C\c3ccc(O)cc3)c2)C(O)C(O)C1O` (configuration not stated), the GI50 was inactive: > 100 µM.

For the molecule `Cc1cc(NS(=O)(=O)c2ccc(/N=N/c3c(O)c(C(=O)O)cc4ccccc34)cc2)nc(C)n1`, the GI50 was inactive: > 100 µM.

Regarding `C/C(CC(=O)Nc1cccc(Cl)c1C)=N\N=C(N)N`, the GI50 is inactive: > 100 µM.

On to `O=C1C[C@@]23CCC4(CC2=CCC[C@H]3O1)OCCO4`, for which the GI50 is inactive: > 100 µM.

For the molecule `CC(=O)NNc1nc(C)c(C(=O)/C=C/c2ccc(Cl)c(Cl)c2)s1`, the GI50 is inactive: > 100 µM.

Consider `Cc1c2ccccc2cc2nc3ccccc3n12`, for which the GI50 is inactive: > 10 µM.

As for `CC(C)NCCC(O)c1cc2ccccc2o1` (configuration not stated), the GI50 was inactive: > 100 µM.

As to `CC(=O)C1(c2ccccc2)CCN(Cn2sc3nc(C)cc(C)c3c2=O)CC1`, the GI50 is inactive: 64.6 µM.

As for `Cc1cccc(C)c1NC(=O)C(=O)C(c1ccccc1Cl)S(=O)(=O)Cc1ccccc1Cl` (configuration not stated), the GI50 is inactive: > 100 µM.

On to `COc1ccc(/C=C2/C(C)=NN(c3cccc(Cl)c3)/C2=N/c2nc3ccccc3s2)cc1`, for which the GI50 is inactive: 22.5 µM.

As to `O=c1c2sc(=S)n(-c3ccc(F)cc3)c2ncn1/N=C/c1ccc(F)cc1F`, the GI50 was inactive: 23.1 µM.

For the molecule `C/C(=C\COP(=O)(O)OP(=O)(O)O)CC/C=C(\C)CNc1c(F)c(F)c(F)c(F)c1F`, the GI50 was inactive: > 44.8 µM.

As to `Cc1oc(N)c(S(=O)(=O)/C(C#N)=C/c2ccccc2[N+](=O)[O-])c1C`, the GI50 is inactive: 55.7 µM.

As to `N#Cc1ccc(OCc2ccc3nc(-c4ccccc4)c(Cl)nc3c2)cc1`, the GI50 is inactive: > 100 µM.

Take `CCCC/C=C/C=C/C=C/CCCCCCCC(=O)OCC(COC(=O)CCCCCCC/C=C/C1C=CC(CCCC)C(C(=O)O)C1C(=O)O)OC(=O)CCCCCCC/C=C/C=C/C=C/CCCC.OCCNCO` (configuration not stated): the GI50 was inactive: 24.9 µM.

`N#Cc1cccc(N2C(=O)C3C4C=CC(C3C2=O)C2C(=O)N(c3cccc(C#N)c3)C(=O)C42)c1` (configuration not stated): the GI50 was inactive: > 63.1 µM.

`CS(=O)(=O)c1nc(N)nc2nc[nH]c12`: the GI50 was inactive: > 100 µM.

As for `Cc1ccc(NC(=O)c2cc(S(=O)(=O)Nc3n[nH]c(=O)n3-c3ccccc3)c(S)cc2Cl)cc1`, the GI50 is inactive: > 100 µM.

`Cc1cc(C)nc(NS(=O)(=O)c2ccc(NN=c3c4ccccc4n(C)c4ccccc34)cc2)n1`: the GI50 is inactive: 36.9 µM.

For `CCn1cc(C(=O)O)c(=O)c2cc(F)c(N3CCN(CN4C(=O)/C(=N\NC(=O)c5ccncc5)c5cc(Cl)ccc54)CC3)cc21`, the GI50 was inactive: 49.9 µM.

`O=C(Cc1ccc2ccccc2c1)NCc1ccc(C(=O)NCCc2ccccc2)cc1`: the GI50 is inactive: > 100 µM.

As to `O=C1C2C(c3ccccc3)NC(c3ccccc3)C1C(c1ccccc1)NC2c1ccccc1` (configuration not stated), the GI50 is inactive: > 100 µM.

In the case of `O=C(O)CC(C(=O)O)c1ccccc1[N+](=O)[O-]` (configuration not stated), the GI50 is inactive: > 100 µM.

On to `COc1cccc(/C=N/[N+](C)(C)C)c1O`, for which the GI50 was inactive: > 10 µM.

For the molecule `N#CCCC1(CCC#N)CCCCCCCCC(CCC#N)(CCC#N)C(=O)C1=O`, the GI50 was inactive: > 100 µM.

For `COC(=O)C(C(=O)C(=O)Nc1ccc(C(F)(F)F)cc1[N+](=O)[O-])c1csc(-n2nc(-c3ccccc3)cc2-c2ccccc2)n1` (configuration not stated), the GI50 is inactive: > 100 µM.

On to `CC(=O)/C(=C\Nc1c(C)n(C)n(C)c1=O)C(=O)c1ccccc1`, for which the GI50 is inactive: > 50 µM.

Turning to `O=C(c1c(F)c(F)c(F)c(F)c1F)N1CCN(C(=O)c2c(F)c(F)c(F)c(F)c2F)C1=S`, the GI50 was inactive: 16.3 µM.

As to `Nc1nc2cc(CNc3ccc(C(=O)NC(CCC(=O)O)C(=O)O)cc3)ccc2nc1-c1ccccc1` (configuration not stated), the GI50 was inactive: > 10 µM.

As for `CCOC(=O)c1[nH]c(COC(C)=O)c2c1CCCCCCCCCC2`, the GI50 is inactive: > 100 µM.

On to `C=CCN(C(C)=O)c1cc(OCc2ccccc2)c2c(c1)c(C)cn2S(=O)(=O)c1ccccc1`, for which the GI50 was inactive: 9.86 µM.

With `CC(=O)Nc1ccc(C(=O)NN2C(=O)CSC2c2ccccc2)cc1` (configuration not stated), the GI50 was inactive: > 100 µM.

Regarding `Cn1c(-c2ccccc2)cc(-c2ccc3c(c2)OCO3)c1-c1cccs1`, the GI50 was inactive: > 100 µM.

Regarding `COc1c(-c2nc3ccc(N4CCN(C)CC4)nc3[nH]2)cc(OC)c2c1nc(CO)n2C`, the GI50 was inactive: > 100 µM.

Turning to `Nc1nc(=S)[nH]c2nc3c(c(-c4ccccc4)c12)CCCC3`, the GI50 was inactive: > 100 µM.

Consider `CC(=O)OC1CC2C(C)(C)C(=O)C=C[C@]2(C)C2CCC3(C)C(=CCC3[C@H](CO)C[C@H](O)C(=O)C(C)(C)O)[C@]12C` (some centres not stated), for which the GI50 is inactive: 27.9 µM.

Regarding `C/C(=C\C(C[C@](C)(O)C(O)CCC#C[Si](C)(C)C)S(=O)(=O)c1ccccc1)CC/C=C/CO[Si](C)(C)C(C)(C)C` (some centres not stated), the GI50 is inactive: 17.6 µM.

Turning to `CC12CCC3[C@@H](CC3(C)C)C(O)(CCC1=O)C2` (some centres not stated), the GI50 is inactive: > 100 µM.

On to `COc1cc2c(cc1C[C@H]1[C@@H]3C[C@H]4c5c(c6ccccc6n5C)C[C@@H]([C@@H]3CO[C@]1(C)OC(C)=O)N4C)c1c(n2C)C2C[C@H]3C(C(C)=O)=COC[C@H]3[C@H](C1)N2C`, for which the GI50 is inactive: 3.35 µM.

On to `Oc1[nH]c(Nc2ccc(F)c(Cl)c2)nc2ncnc1-2`, for which the GI50 is inactive: > 100 µM.

Regarding `c1ccc(Nc2nnc(-c3nsc4ccccc34)o2)cc1`, the GI50 is inactive: > 100 µM.

Turning to `CCN(CC)C(=S)SNCc1ccc(S(N)(=O)=O)cc1`, the GI50 is inactive: 36.4 µM.
